Read counts are not given, so values of variants with three or more changes are uncertain.
B1: LINE1-full (parent)
chain: UACGUAGGUGGUUUUCCCCUGAUAGUGCUAAGGGGGCCUGGAAGUUUGGACUGGGCAGAGCUCAACACAGCGUGGCAAAGUGGCUGUGGCUAGACUGCCUCUCUGGAUUCCUCGUCACUCAGCAGGGCAUCUCUGAGAGAAAUGCC

Variants of: B1
Test: self-cleavage, relative activity (ratio to wild type); higher = more cleavage; in vitro, sequencing; the parent is a self-cleaving ribozyme

Q: For UACGUAGGUGGUUUUCCCCAGAUAGUGCUAAGGGGGCCUGGGAGUCUGGACUGGGCAGAGCUCAACACAGCGUGGCAAAGUGGCUGUGGCUAGACUGCCUCUCUGGAUUCCUCGUCACUCAGCAGGGCAUCUCUGAGGGAAAUGCC, which self-cleavage is on record?
A: The self-cleavage was 1.48.

Q: With UACGUAGGUGGUUUUCCCUUGAUAGCGCUAAGGGGGCCUGGAAGUUUGGACUGGGCAGAGCUCAACACAGCGUGGCAAAGUGGCUGUGGCUAGACUGCCUCUCUGGAUUCCUCGUCACUCAGCUGGGCAUCUCUGAGAGAAAUGCC as the variant, how does the self-cleavage read?
A: The self-cleavage was 0.82.

Q: For UACGUAGGUGGUUUUCCCCUGAUAGUGCUAAGGGGGCCUGGAAGUUUGGACUGGGCAGUGCUCAACACUGCGUGGCAAAGUGGCCGUGGCUAGACUGCCUCUCUGGAUUCCUCGUCACUCAGCAGGGCAUCUCUGAGAGAAAUACC, which self-cleavage is on record?
A: Its self-cleavage is 0.04.

Q: Which self-cleavage does the source give for UACGUAGGUGGUUUUCCCCUGAUAGUGCUAAGGGGGCCAGGAAGUUUGGACUGGGCAGAGCUCAACACAGCGUGGCAAAGUGGCUGUGGCUAGACUGCCUCUCUGGAUUCCUCGUCACUCAGCAGGGCAUCUCCGAGAGAAAAGCC here?
A: The self-cleavage was 1.02.

Q: Which self-cleavage does the source give for UACGCAGGUGGUUUUCCCCUGAUAGUGCUAAGGGGGCCUGGAAGUUUGGACUGGGCAGAGCUCAACACAGCGUGGCAAAGUGGCUGUGGCUAGACUGUCUCUCUGGAUUCCUCGUCACCCAGCAGGGCUUUUCUGAGAGAAAUGCC here?
A: Its self-cleavage is 0.59.

Q: Which self-cleavage does the source give for UACGUAGGUGGUUUUCCCCUGAUAGUGCUAAGGGGGCCUGGAAGUUUGGACUGGGCAGAGCUCAACACAGCGUGGCAAAGUGGCUGUGGCUGGACUGCCUCUCCGGAUUCCUCGUCACUCAGCAGGGCAUCUCUGAGAGAAGUGCC here?
A: The self-cleavage was 0.05.

Q: Which self-cleavage does the source give for UACGUAGGUGGUCUCCCCCUGAUAGUGCUAAGGGGGCCUGGAAGUUUGGACUGGGCAGAGCUCAACACAGCGUGGCAAAGUGGCUGCGGCUAGACUGCCUCUCUGGAUUCCUCGUCACUCAGCAGGGCAUCUCUGAGAGAAAUGCC here?
A: Its self-cleavage is 0.

Q: For UACGUAGGUGGUUUUCCCCUGAUAGUGCUAAGGGGGCCUGGAAGUUUGGACUGGGCAGAGCUCUACACAGCGUGGCAAAGUGGCUGUGGCUAGACUGCCUCUCUGGAUUCCUCGUCACUCAGCAGGGCGUCCCUGAGAGAAAUGCC, which self-cleavage is on record?
A: The self-cleavage was 0.69.

Q: With UACGUAGGUGGUUUUCCCCUGGUAGUGCCAAGGGGGCCUGGAAGUUUGGACUGGGCAGAGCUCAACACAGCGUGGCAAAGUGGCUGUGGCUAGACUGCCUCUCUGGAUUCCUCGUCGCUCAGCAGGGCAUCUCUGAGAGAAAUGCC as the variant, how does the self-cleavage read?
A: Its self-cleavage is 0.55.

Q: Which self-cleavage does the source give for UACGUAGGAGGUUUUCCCCUGAUAGUGCUAAGGGGGCCCGGAAGUUUGGACUGGGCAGAGCUCAACACAGCGCGGCAAAGUGGCUGUGGCUAGACUGCCUCUCUGGAUUCCUCGUCACUCAGCAGGGCAUCUCUGAGUGAAAUGCC here?
A: The self-cleavage was 0.71.

Q: Which self-cleavage does the source give for UACGUAGGUGGUUUCCCCCUGAUAGUGCUAAGGGGGCCUGGUAGUUUGGACUGGGCAGAGCUCAACUCAGCGUGGCAAAGUGGCUGUGGCUAGACUGCCUCUCUGGAUUCCUCGUCACUCAGCAGGGCAUCUCUGAGAGAAAUGCC here?
A: Its self-cleavage is 0.08.

Q: For UACGUAGGAGGUUUUCCCCUGAUAGUGCUAAGGUGGCCUGGAGGUUUGGACUGGGCAGAGCUCAACACAGCGUGGCAAAGUGGCUGUGGCUGGACUGCCUCUCUGGAUUCCUCGUCACUCAGCAGGGCAUCUCUGAGAGAAAUGCC, which self-cleavage is on record?
A: The self-cleavage was 0.2.

Q: With UACGUAGGUGGUUUUCCCCUGAUAGUGCUAAGGGGGCCUGGAAGUUUGGACUGGGCAGAGCUCAACACAGCGUGGCAAAGUGGCUGGGGCUAGACUGCCUCUCUGGAUUCCUCGUCACUCAGCAGGGCUCCUCUGAGAGAAAUGCC as the variant, how does the self-cleavage read?
A: Its self-cleavage is 0.09.

Q: For UACGUAGGUGGUUUUCCCCAGAUAGUGCUAAGGGGGCCUGGAAGUUUGGACUGGGCAGAGCCCAACACAGCGUGGCAAAGUGGCUAUGGCUAGACUGCCUCUCUGGAUUCCUCGUCACUCAGCUGGGCAUCUCUGAGAGAAAUGCC, which self-cleavage is on record?
A: Its self-cleavage is 0.05.

Q: Which self-cleavage does the source give for UACGUAGGUGGUUUUCCCCUGGUAGUGCUAAGGGGGCCUGGAAGUUUGGACUGGGCAGAGCUUAACACAGCGUGGCAAAGUGGCUGUGGCUAGACUGCCUCUCUGGAUUCCUCGUCACUCAGCAGGGCGUCUCUGAGAGAAAUGCC here?
A: Its self-cleavage is 0.22.

Q: With UACGUAGGUGGGUUUCCCCUGAUAGUGCUAAGGGGGCCUGGGAGUUUGGUCUGGGCAGAGCUCAACACAGCGUGGCAAAGAGGCUGUGGCUAGGCUGCCUCUCUGGAUUCCUCGUCGCUCAGCAGGGCAUCUCAGAGAGAAAUGCC as the variant, how does the self-cleavage read?
A: The self-cleavage was 0.

Q: Which self-cleavage does the source give for UACGUAGGUGGUUUUCCCCUGAUAGUGCUAAGGGGGCCUGGAAGUUUGGACUGGGCAGAGCUCAGCACAGCGUGGCUAAGUGGCUGUGGCUAGACUGCCUCUCUGGAUCCCUCGUCGCUCAGCAGGGCUUCUCUGAGGGGAAUGCC here?
A: Its self-cleavage is 0.

Q: For UGCGUAGGUGGUGUUCCCCUGUUAGUGCUAAGGGGGCCUGGAAGUUUGGACUGGACAGAGCUCAACACAGCGUGGCAAAGUGGCUGUGGCUAGACUGCCUCUCUGGAUUCCUCGUCACUCAGCAGGGCAUCUCUGAGAGAAAUGCC, which self-cleavage is on record?
A: The self-cleavage was 0.26.

Q: For UACGUAGGUGGUUUUCCCCUGAUGGUGCUAAGGGGGCCAGGAAGUUUGGACUGGGCAGAGCUCAACACAGCGUGGCAAAGUGGCUGUGGCUAGACUGCCUCUCUGGAUUCCUCGUCACUCAGCAGGGCACCUCUGAGAGAAAUGCC, which self-cleavage is on record?
A: The self-cleavage was 1.26.

Q: For UACAUAGGUGGUUUUCCCCUGAUAGUGCUAAGGGGGCCUGGAAGUUUGGACUGGGCAGAGCUCCACACAGCGUGGCAAAGUGGCUGUGGCUAGACUGCCUCUCUGGGUUCCUCGUCACUCAGCAGGGCAUCUCUGAGAGAAAUGCC, which self-cleavage is on record?
A: Its self-cleavage is 0.32.

Q: Which self-cleavage does the source give for UACGUAGGUGGUUUUCCCCUGAUAGUGCUAAGGGGGCCUGGAAGCUUGGACUGGGCAGAGCACAACACAGCGUGGCAAAGUGGCUGUGGCUAGACUGCCUCUCUGGAUUCCUCGUCACUCAGCAGGGCACCUCUGAGAGAAAUGCC here?
A: The self-cleavage was 0.02.

Q: For UACGUGGGUGGUUUUCCCCUGAUAGUGCUAAGGGGGCCUGGAGGUUUGGACUGGGCAGAGCUCAACACAGCGUGGCAAAGUGGCUGUGGCUAGACUGCCUCUCUGGAAUCCUCGUCACUCAGCAGGGCAUUUCUGAGAGAAAUGCC, which self-cleavage is on record?
A: The self-cleavage was 0.66.

Q: For UACGUAGGUGGUUUUCCCCUGAUAGUGCUAAGGGGGCCUGGAAGCUUGGACUGGGCAGAGCUCAACACAGCGUGGCAAAGUGGCUGUAGCUAGACUGCCUCUCUGGAUUCCUCGUCACUCAGCAGGGCAACUCCGAGAGAAAUGCC, which self-cleavage is on record?
A: The self-cleavage was 0.05.

Q: For UACGUAGGUGGUUUUCCCCUGAUAGUGCUAAGGGGGCCUGGAAGGUUGGACUGGGCAGAGCUCAACACAGCGUGGCAAAGUGGCGGUGGCUAGACUGCCUCUCUGGAUCCCACGUCACUCAGCAGGGCAUCUCUGAGAGAGAUGCC, which self-cleavage is on record?
A: The self-cleavage was 0.23.

Q: Which self-cleavage does the source give for UACGAAGGCGGUUUUCCCCUGAUAGUGCUAAGGGGGCCUGGAAGUUUGGACUGGGCAGAGCUCAACACAGCGUGGCAAAGUGGCUGUGUCUAGACUGCCUCUCUGGAUUCCUCGUCACUCAGCAGGGCAUCUCUGAGAGAUAUGCC here?
A: Its self-cleavage is 0.17.

Q: For UACGUAGGUGGUUUUCCCCUGAUAGUGCUAAGGGGGCCUGGAAGUAUGGACUGGGCAGAGCACAACACAGCGUGGCAAAGCGGCUGUGGCUAGACUGCCUCUCUGGAUUCCUAGUCACUCAGCAGGGCAUCUCUGAGAGAAAUGCC, which self-cleavage is on record?
A: Its self-cleavage is 0.03.

Q: For UACGUAGGUGGUUCUCCCCUGAUAGUGCUAAGGGGGCCUGGAAGUUUGGACUGGGCUGAGCUCAACACAGCGAGGCAAAGUGGCUGUGGCUAGACUGCCUCUCUGGAUUCCUCGUCACUCAGCAGGGCAUCUCUGAGAGAAGUGCC, which self-cleavage is on record?
A: Its self-cleavage is 0.05.

Q: Which self-cleavage does the source give for UACGUAGGUGGAUUUCCCCUGAUAGUGCUAAGGGGGCCUGGAAGUUUGGACUUGGCAGAGCUCAACACAGCGUGGCAAAGUGGCUGUGGCUAGGCUGCCUCUCUGGAUUCCUCGUCACUCAGCAGGGCAUCUCUGAGAGAAAUGCC here?
A: The self-cleavage was 0.

Q: With UACGUAGGUGGUUUUCCCCUGAUAGUGCUAAGGGGGCCUGGGAGUUUGGACUGGGCAGAGCUCAACACAGCGUGGCAAAGUGGCUGUGGCUAGACUGCCUCUCUGGAUACCUCGUCACUCAGCAGGGCAUCUCCGAGAGAAAUGCC as the variant, how does the self-cleavage read?
A: Its self-cleavage is 1.05.

Q: Which self-cleavage does the source give for UACGUAGGUGGUUUUCCCCUGUUAGUGCUAAGGGGGCCUGGAAGUUUGGACUGGGCAGAGCUCAACACAGCGUGGCAAAGUGGCUGUGGCUAGUCUGCCUCUCUGGAUUCCUCGUCACUCAGCCGGGCAUCUCUGAGAGAAAUGCC here?
A: The self-cleavage was 0.4.

Q: With AACGUAGGUGGUUUUCCCCUGAUAGUGCUAAGGGGGCCUGGGAGUUUGGACUGGGCAGGGCUCAACACAGCGUGGCAAAGUGGCUGUGGCUAGACUGCCUCUCUGGAUUCCUCGUCACUCAGCAGGGCAUCUCUGAGAGAAAUGCC as the variant, how does the self-cleavage read?
A: Its self-cleavage is 0.47.

Q: With UACGUAGGUGGUGUUCCCCUGACAGUGCUAAGGGGGCCUGGAAGUUUGGACUGGGCAGAGCUCAACACAGCGUGGCAAGGUGGCUGAGGCUAGACUGCCUCUCUGGAUUCCUCGUCACUCAGCAGGGCAUCCCUGAGAGAAAUGCC as the variant, how does the self-cleavage read?
A: The self-cleavage was 0.16.

Q: For UACGUAGGCGGUUUUCCCCUGAUAGUGCUAAGGGGGCCUGGAAGUUUGGACUGGGCAGAGCUCAACACAGCGUGGCAAAGUGGCUGUGGCUAGACUGCCUCUCUGGUUUCCCCGUCACUCAGCAGGGCAUCUCUGAGAGAAAUGCC, which self-cleavage is on record?
A: Its self-cleavage is 1.38.

Q: Which self-cleavage does the source give for CACGUAGGUGGUUUUCCCCUGAUAGUGCUAAGGGGGCCUGGAAGUUUGGACUGGGCAGAGCCCAACACAGCGUGGCAAAGUGGCUGCGGCUAGACUGCCUCUCUGGAUUCCUCGUCACUCAGCAGGGCAUCUCUGAGAGAAAUGCC here?
A: The self-cleavage was 0.41.

Q: For UACGCAGGUGGUUUUCCCCUGAUAGUGCUGAGGGGGCCUGGAAGUUUGGACUGGGCAGAGCUCAACACAGCGUGGCAAAGUGGCUGUCGCUAGACUGCCUCCCUGGAUUCCUCGUCACUCAGCAGGGCAUCUCUGAGAGAAAUGCC, which self-cleavage is on record?
A: The self-cleavage was 0.25.

Q: With UACGUAGGUGGUUUUCCCCUGAUAGUGCUAAGGGGGCCUGGAAGUUUGGACUGGGCAGAGCUCAACACAGCGUGGCAUAGUGGCUGUGGCUAGACUGCCUCUCUGGAUUCCUCGCCACUCAGCAGGGCAUCUCUGAGGGAAAUGCC as the variant, how does the self-cleavage read?
A: The self-cleavage was 2.17.

Q: Which self-cleavage does the source give for UACGUAGGUGGCUUUCCCCUGAUAGUGCUAAGGGGGCCUGGAAGCUUGGACUGGGCAGAGCUCAACACAGCGUGGCAAAGUGGCUGUGGCUAGACUGCCACUCUGGAUUCCUCGUCACUCAGCAGGGCAUCUCUGAGAGAAAUGCC here?
A: Its self-cleavage is 0.75.

Q: Which self-cleavage does the source give for UACGUAGGUGGUUUUCCCCCGAUAGUGCUGAGGGGGCCUGGAAGUUUGGACUGGGCUGAGCUCAACACAGCGUGGCAAAGUGGCUGUGGCUAGACUGCCUCUCUGGAUACCUCGUCACUCAGCAGGGCAUCUCUGAGAGAAAUGCC here?
A: The self-cleavage was 0.13.

Q: With UACGUAGGGGGUUUUCCCCUGAUAGUGCUAAGGGGGCCUGGAAGUUUGGACUGGGCAGAGCUCAACUCAGCGUGGCAAAGUGGCUGUGGCUAGACUGCCUCUCUGAAUUCCUCGUCACUCAGCAGGGCAUCUCUGAGAGAAAUGCC as the variant, how does the self-cleavage read?
A: Its self-cleavage is 0.34.

Reference: the RNAGym collection of RNA variant scans (doi:10.7554/elife.90254)
